The other results are listed elsewhere or left out.
B1: PhoQ; a variant is named by its letters at X, in order, P23837 (parent)
chain: MKKLLRLFFPLSLRVRFLLATAAVVLVLSLAYGMVALIGYSVSFDKTTFRLLRGESNLFYTLAKWENNKLHVELPENIDKQSPTMTLIYDENGQLLWAQRDVPWLMKMIQPDWLKSNGFHEIEADVNDTSLLLSGDHSIQQQLQEVREDDDDAEMTHSVAVNVYPATSRMPKLTIVVVDTIPVELKSSYMVWSWFIYVLSANLLLVIPLLWVAAWWSLRPIEALAKEVRELEEHNRELLNPATTRELTSLVRNLNRLLKSERERYDKYRTTLTDLTHSLKTPLXXLQXXLRSLRSEKMSVSDAEPVMLEQISRISQQIGYYLHRASMRGGTLLSRELHPVAPLLDNLTSALNKVYQRKGVNISLDISPEISFVGEQNDFVEVMGNVLDNACKYCLEFVEISARQTDEHLYIVVEDDGPGIPLSKREVIFDRGQRVDTLRPGQGVGLAVAREITEQYEGKIVAGESMLGGARMEVIFGRQHSAPKDE

Variants of: B1
Assay: enrichment ratio after two sorts for PhoP signalling (ratio (wild type AVST 3.29)); higher = more functional
Conditions: with PhoP (E. coli)

Going from QEFT to PVEL, the enrichment ratio falls from 5.39 to ≤ 0.25.

QKRV and IGGT cannot be ordered by enrichment ratio: ≤ 0.25 for the first, ≤ 0.25 for the second.

CFHG and RGRC cannot be ordered by enrichment ratio: ≤ 0.25 for the first, ≤ 0.25 for the second.

HASK and IWGW cannot be ordered by enrichment ratio: ≤ 0.25 for the first, ≤ 0.25 for the second.

FGDI and TLTY cannot be ordered by enrichment ratio: ≤ 0.25 for the first, ≤ 0.25 for the second.

RNEC and VKCC cannot be ordered by enrichment ratio: ≤ 0.25 for the first, ≤ 0.25 for the second.

QILE and WCYI cannot be ordered by enrichment ratio: ≤ 0.25 for the first, ≤ 0.25 for the second.

Compared with ASCE, WLRR is lower in enrichment ratio: 4.22 for the first, ≤ 0.25 for the second.

EAMQ and MNMR cannot be ordered by enrichment ratio: ≤ 0.25 for the first, ≤ 0.25 for the second.

AFVK and WSHY cannot be ordered by enrichment ratio: ≤ 0.25 for the first, ≤ 0.25 for the second.

Compared with TVAT, AYPT is lower in enrichment ratio: 16.8 for the first, ≤ 0.25 for the second.

SWLH and VWQS cannot be ordered by enrichment ratio: ≤ 0.25 for the first, ≤ 0.25 for the second.

Compared with MCLM, CRCP is lower in enrichment ratio: 6.74 for the first, ≤ 0.25 for the second.

KQTP and IHAK cannot be ordered by enrichment ratio: ≤ 0.25 for the first, ≤ 0.25 for the second.

First: PHWE
Second: AVLC
The enrichment ratio of the first is lower: ≤ 0.25 for the first, 8.34 for the second.

HFNF and YKAI cannot be ordered by enrichment ratio: ≤ 0.25 for the first, ≤ 0.25 for the second.

IAPI and GFYH cannot be ordered by enrichment ratio: ≤ 0.25 for the first, ≤ 0.25 for the second.

SLDW and VYRK cannot be ordered by enrichment ratio: ≤ 0.25 for the first, ≤ 0.25 for the second.

TPVC and GRQW cannot be ordered by enrichment ratio: ≤ 0.25 for the first, ≤ 0.25 for the second.

QLIP and KLTQ cannot be ordered by enrichment ratio: ≤ 0.25 for the first, ≤ 0.25 for the second.

QLEK and MVVP cannot be ordered by enrichment ratio: ≤ 0.25 for the first, ≤ 0.25 for the second.

CPCP and PERK cannot be ordered by enrichment ratio: ≤ 0.25 for the first, ≤ 0.25 for the second.

VPFV and YAHP cannot be ordered by enrichment ratio: ≤ 0.25 for the first, ≤ 0.25 for the second.

IEIG and LIFL cannot be ordered by enrichment ratio: ≤ 0.25 for the first, ≤ 0.25 for the second.

MLTA and PEIV cannot be ordered by enrichment ratio: ≤ 0.25 for the first, ≤ 0.25 for the second.

MPGF and WYLH cannot be ordered by enrichment ratio: ≤ 0.25 for the first, ≤ 0.25 for the second.

GYCR and FWYM cannot be ordered by enrichment ratio: ≤ 0.25 for the first, ≤ 0.25 for the second.

KIAY and GCDH cannot be ordered by enrichment ratio: ≤ 0.25 for the first, ≤ 0.25 for the second.

NLMR and WPRK cannot be ordered by enrichment ratio: ≤ 0.25 for the first, ≤ 0.25 for the second.

KTFD and ADQD cannot be ordered by enrichment ratio: ≤ 0.25 for the first, ≤ 0.25 for the second.

VGPQ and YAAG cannot be ordered by enrichment ratio: ≤ 0.25 for the first, ≤ 0.25 for the second.

WVPP and RYWP cannot be ordered by enrichment ratio: ≤ 0.25 for the first, ≤ 0.25 for the second.

WDDH and WKNC cannot be ordered by enrichment ratio: ≤ 0.25 for the first, ≤ 0.25 for the second.

QCAW and FWRK cannot be ordered by enrichment ratio: ≤ 0.25 for the first, ≤ 0.25 for the second.

TNPK and AAKL cannot be ordered by enrichment ratio: ≤ 0.25 for the first, ≤ 0.25 for the second.

NYPN and VPEY cannot be ordered by enrichment ratio: ≤ 0.25 for the first, ≤ 0.25 for the second.

DMQT and KCRK cannot be ordered by enrichment ratio: ≤ 0.25 for the first, ≤ 0.25 for the second.

IKTS and KSHE cannot be ordered by enrichment ratio: ≤ 0.25 for the first, ≤ 0.25 for the second.

QNQF and QRGY cannot be ordered by enrichment ratio: ≤ 0.25 for the first, ≤ 0.25 for the second.

RYDV and SCDF cannot be ordered by enrichment ratio: ≤ 0.25 for the first, ≤ 0.25 for the second.

KCRA and ACWF cannot be ordered by enrichment ratio: ≤ 0.25 for the first, ≤ 0.25 for the second.

IPDI and RMTD cannot be ordered by enrichment ratio: ≤ 0.25 for the first, ≤ 0.25 for the second.
